Over roughly 4,500 sequences, “median log2 fold change of GCK-ALFA target abundance (FLAG IP / Myc IP barcode read proportion)” has its median near 0.078; the lowest 2% begin near -0.6. The list shows a part of the results.
B1: GBRAP_160_4049 (protein)
chain: EEEKEELLEMVEEAEKEVIEVLDEEGAEAALTMFAGLSGEIIMEAFEDENASDELVDELAKVRDEGVKRLEENKNASKEELKKIIEEAAKRMKEIIKKHY
B2: GBRAP_184_5035 (protein)
chain: KVIERTIEAENEEELKKKVEALRKEVKGTGATLIVLAKIKNPTEEKVKLLIEGLGDMLRNGDVSEVVIGFEEELSEEITDVAIKTGDEEGVKVVLPISDE
B3: GBRAP_52_6330 (protein)
chain: SKEKVEELAEKLYEAIVAGKKEEAYALAKEAVETLSSEEILELTRIVAEKVSKEDDEVKERATEVFEYLAELVEEERGDEETAAEILGIVATTLYKAEQE
B4: GBRAP_43_5770 (protein)
chain: SKELVEGALDFALLAAESPEIPEETKVKAIIAALELAADEGYADKELVLKVIEAAAKNLSAEELEKIAKKAEEIAKKHPELKETYEEAVKVLKAAIKAKK
B5: GBRAP_52_6020 (protein)
chain: MEEELRAFAEEVLALVRAGRLEEARARVEEKVASLNEEEVKVLIEVVAELAAAAAPADHDAVWRLAEMIAEAMEKAGYDEVLADLLLARVAAALYEAEQR
B6: GBRAP_128_3363 (protein)
chain: VDEEKLEKVRELVKKMIESSVEEARKLAEEIVELMKTMSLEEQEAAVEIIKEYLPKLSKEKLEVLADVIREKRPEMDPEKANLLSDVEVEALNQAEELEE
B7: GBRAP_9_7150 (protein)
chain: LEELIEELEKIFREMVEEVREIVPEEVLPVVEKMEEEAKKRFEELKEDEEITEEEAVEEAKRIVREFTEAVSEKVDPETARMVRAIGDTALLEIEEIKEK
B8: GBRAP_160_4632 (protein)
chain: SEKLKKALEKVEEAEEFVKSLIPEVNVEQAANFLDTEFGSVILELYEEGLISEETADKMMEIVDEAVAYMRAHPDLTEEERKKLVEETAKKIKEVLKEEY
B9: GBRAP_128_3528 (protein)
chain: SLEEAKKKAAEVVEKIIASTPEEARKITEEFLEWLKTLSDEEVEAAADVLIENLPKLTAEKLDVVADVFEEKRPEFSPEKQKYIADVEVAALNEAEEKEE
B10: GBRAP_39_5651 (protein)
chain: EEEEENELLFDYYEALAVGYMVKNGISEEELIKKGLEILEKIAKEHPEIKELVEKLIELAKTGNEEVKLAAAGIALEYEEGLPIEEIKEHIEKFIKYVEK
B11: GBRAP_52_6087 (protein)
chain: MEERLEKLAKEIAEAVAAGKRDEALALMEKAIKELSVEEIKKLFKLAAELVAKLGEEAEELFVDLLDEAEDLLIEAGISEEDALLIVGDAEAALAKAVAA
B12: GBRAP_128_3488 (protein)
chain: ADPAAVAEARELVKEMAESDLERARELAERLVDLLAAADPETREAIVEAVEEEAPELSEEHLEVAMDVFRERRPEADPETAQAILDIDVVLGAELYEKME
B13: GBRAP_160_4845 (protein)
chain: SEKLEKVKKELEEARDFILSLVDEVSVEDLAKFADAELGSTGLYLLEEGYINEEAFDALLEENDKLVKELLANKDASPEEIKEIIKKHVERAIEEIEKLL
B14: GBRAP_57_6462 (protein)
chain: MSPLEKALEYFEKALELVKEGAPLEEILKEVKKGLDLLDKTTLLDILLLLDPNTRSDLSKEELKKKILELIRKALEEEGREAAAKRVRLIAGQVEMDLLD
B15: GBRAP_52_6089 (protein)
chain: MEEKLKKYAEELLKAAVAGDLDAATKLLLKMVAELTDEEVLEALKQLAKQIAALPPEERDKALDVALEALSRVADETGKEELMDLAMAQLAAEAYKAEQA
B16: GBRAP_95_7025 (protein)
chain: EDDQLLVDSLTEVLDTYVDLGDEEAARAAAKRLVEALKENGILPLPKDISVASAKLILDVAEETLDLETLKKLAEQVIKATKDEEVKKYAEEVIKRKEKK
B17: GBRAP_53_6408 (protein)
chain: MKKKIEELVKKILEAAEEATKADEEKQLELAKKIGELLKKLKEAGMSDEELTKLVVEIAKKLKEAGASDKVLVTLAQATKDLGLDEATAEVTELIVEDLE
B18: GBRAP_26_5461 (protein)
chain: MEEVEREAEERVREIAARLPDPRYAAAVVAEFSTELLEAEERIEAGEDPEKAFREARDEFLAFVRELMREGGLSEEEIAAFEEELAAVFDELEKRVLELL
B19: GBRAP_160_4062 (protein)
chain: EEEKEELIKMVEEAEKLILEVLDEEGVEAAIIMADGEFGSIIMEAASNEKASDELVDELAKIRDDLVKKLEENKNASKEEQKKIVKEAAEKAKKAIKELY
B20: GBRAP_74_6517 (protein)
chain: MAELLAALRAAAAAGDARAVAALAREIVERGSLEAIEEAARILVAFVAAHRDTLTEEELELLADVLAEVADALMERGGDSEVILAVAQAAYELEKLVEAR
B21: GBRAP_78_6609 (protein)
chain: ETKEKIQELLDKAIEKLRKIRKEVPEVAEQANDAEVLAGTALYMVDTGSESKEEIQETVEEAIKEAEELLKELEGKKEEAKKLAEEALKLLKEALKLLKE
B22: GBRAP_52_6212 (protein)
chain: MEARLEALADAALAAVRAGRLDEARALLRELVETLDDEELERFGAVLVERAEAAAPEDFDAVFRLAELLEEELEAQGKDEVLADDLLNRVAAALYKRELA
B23: GBRAP_39_5690 (protein)
chain: EEEEENEDVVSYLEGIAAKYLYETGISFEEALKRAKEVLEKYAKEHPELKPLVEELIELAEEKGEEAKLVLIGIAVLIEEGTPDEEIKEKIEKAINYFKS
B24: GBRAP_184_5193 (protein)
chain: KVLEYTLKSENLEETKAKMEELKKKAKEEKADLYLIAEFKEVTKEMIEALMETLKEIKENGYSKNITVLLEGKLTEEEIDLAWELADKAGVKLTIALDEE
B25: GBRAP_153_3944 (protein)
chain: GEEEERLLQEALELLERIKAEGGPEELIRALARLIKQLTEEQRLEVAREMNSLSEELVHRIFRVLATEEGFSVEELLAMTTELNEEHEAAALEAIVEAQK
B26: GBRAP_160_4073 (protein)
chain: SEEVEKLIKEIREIAEETIEFLKESNEEEQIAIVRMMAGDILMLVFEAPFMSDEDEEEVDKILEEYVKKLEENKDWSMEEKEELIREMAEEVEKKVKEAA
B27: GBRAP_172_5003 (protein)
chain: GVVLVELDLRGLSRDEAVARAEAAVRAAAAAHDADIVLAIAADTQETVDAVTAAARATAAALGRRLTVVADAVTTEAGAATIRAAARAEAINLQYEQEEE
B28: GBRAP_35_5509 (protein)
chain: STDDTTAEMLIAGIEDAVLALPDVDVETASAIANSYAKAAEELAEELKNNLENLKKLYEAMEKLGEAVKKNFGDSELAKKTLEKIEKVAKKLKELAKKAE
B29: GBRAP_128_3527 (protein)
chain: SLEEARERAAEVVERIKASTPEEAAEITAEWLDWLKTLSDEEVAAAAEVLEERLPELTAEKLDVVADVFRERRGEFSPEVQEEIAGVEVAALNEAEELEE

target: GABARAP, O95166; assay: median log2 fold change of GCK-ALFA target abundance (FLAG IP / Myc IP barcode read proportion) (log2 ratio); each designed protein is fused to an ALFA-tag nanobody in HEK293 cells to bring the named protein to FLAG-tagged glucokinase (GCK); Myc marks an untargeted standard; higher = target protein stabilised (more abundant); conditions: target protein: 3xFLAG-MCP-GCK-ALFA reporter; HEK293 landing pad (RPLP)
In short: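 HEK293 landing-pad cells received a recombined binder library fused to the ALFA nanobody and were induced with 2 μg mL^−1 doxycycline, then transfected with a plasmid encoding a FLAG-tagged target and a Myc-tagged standard. Lysates were collected after 48 h for anti-FLAG and anti-Myc immunoprecipitation, and the circular RNA barcodes were reverse transcribed, amplified and sequenced. Target abundance for each binder is the median log2 ratio of FLAG to Myc barcode read proportions. Barcodes had to reach a proportion of at least 10^−7 in both replicates, each binder needed at least 3 barcodes per replicate, a pseudocount of 10^−6 was applied, and the two replicates were pooled.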

Sequence of GABARAP, O95166 (O95166 whole entry, the tested form may be a part): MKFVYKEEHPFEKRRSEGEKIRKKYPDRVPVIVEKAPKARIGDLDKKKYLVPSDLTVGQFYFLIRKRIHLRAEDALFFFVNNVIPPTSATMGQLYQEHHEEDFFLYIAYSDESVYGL

In order of falling “median log2 fold change” value:
1. B21  0.418
2. B6  0.332
3. B28  0.302
4. B17  0.292
5. B9  0.266
6. B3  0.262
7. B27  0.259
8. B16  0.257
9. B25  0.23
10. B15  0.168
11. B7  0.158
12. B4  0.151
13. B18  0.12
14. B23  0.102
15. B19  0.0878
16. B22  0.0822
17. B5  0.0489
18. B29  0.0454
19. B10  -0.0265
20. B1  -0.0355
21. B12  -0.0521
22. B8  -0.0792
23. B14  -0.108
24. B13  -0.12
25. B24  -0.131
26. B20  -0.222
27. B11  -0.234
28. B2  -0.357
29. B26  -0.399
